Assay results reported in PMC7617670.
Results are given in words; binding and its absence hold for the method and conditions named. Some results given as binding are weak or reduced against the parent protein; the word gives no strength.

T1: PabA double variant [Y127A, S171A] (Escherichia coli) (UniProt P00903)
T1 sequence: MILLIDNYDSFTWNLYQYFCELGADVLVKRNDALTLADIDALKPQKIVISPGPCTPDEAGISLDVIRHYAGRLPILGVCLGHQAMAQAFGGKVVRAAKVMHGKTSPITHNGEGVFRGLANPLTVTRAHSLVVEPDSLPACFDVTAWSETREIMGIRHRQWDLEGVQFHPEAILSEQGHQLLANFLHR

T2: PabA variant aS171A (Escherichia coli) (UniProt P00903)
T2 sequence: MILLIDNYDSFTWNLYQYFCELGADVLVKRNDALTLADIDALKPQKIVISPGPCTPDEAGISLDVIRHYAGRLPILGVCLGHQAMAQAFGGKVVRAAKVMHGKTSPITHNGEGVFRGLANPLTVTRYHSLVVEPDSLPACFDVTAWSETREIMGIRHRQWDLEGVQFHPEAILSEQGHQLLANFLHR

T3: PabA, glutaminase subunit of aminodeoxychorismate synthase (ADCS) from Escherichia coli, wild type (Escherichia coli) (UniProt P00903)
T3 sequence: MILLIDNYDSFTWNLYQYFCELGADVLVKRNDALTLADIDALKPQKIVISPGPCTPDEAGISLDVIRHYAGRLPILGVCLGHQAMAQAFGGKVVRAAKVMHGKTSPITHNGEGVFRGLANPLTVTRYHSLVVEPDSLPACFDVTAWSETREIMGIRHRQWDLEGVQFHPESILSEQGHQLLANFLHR


What was measured:
[1] = biological target: T1, PabA double variant [Y127A, S171A] (Escherichia coli); experiment: SEC; analytical SEC without Gln; PabA and PabB mixed equimolar, 50 μM each; Superdex 200 increase 10/300 GL; 50 mM Tris/HCl pH 7.5, 50 mM KCl, 5 mM MgCl2, 2 mM DTT; 25 °C; without Cho; both purified
[2] = biological target: T2, PabA variant aS171A (Escherichia coli); experiment: as above
[3] = biological target: T1, PabA double variant [Y127A, S171A] (Escherichia coli); experiment: condition: only without Gln (250 μM PabB titrated into 25 μM PabA); ITC; 250 μM PabB titrated into 25 μM PabA in the cell; 25 °C; 50 mM Tris/HCl pH 7.5, 50 mM KCl, 5 mM MgCl2; without Cho and Gln; one set of sites; both purified
[4] = biological target: T3, PabA, glutaminase subunit of aminodeoxychorismate synthase (ADCS) from Escherichia coli, wild type (Escherichia coli); experiment: ITC; 250 μM PabB titrated into 25 μM PabA in the cell; 25 °C; 50 mM Tris/HCl pH 7.5, 50 mM KCl, 5 mM MgCl2; without Cho and Gln; one set of sites; both purified
[5] = biological target: T3, PabA, glutaminase subunit of aminodeoxychorismate synthase (ADCS) from Escherichia coli, wild type (Escherichia coli); experiment: SEC; analytical SEC without Gln; PabA and PabB mixed equimolar, 50 μM each; Superdex 200 increase 10/300 GL; 50 mM Tris/HCl pH 7.5, 50 mM KCl, 5 mM MgCl2, 2 mM DTT; 25 °C; without Cho; both purified
[6] = biological target: T3, PabA, glutaminase subunit of aminodeoxychorismate synthase (ADCS) from Escherichia coli, wild type (Escherichia coli); experiment: SEC; analytical SEC with 5 mM L-Gln in the buffer; PabA and PabB mixed equimolar, 50 μM each; Superdex 200 increase 10/300 GL; 50 mM Tris/HCl pH 7.5, 50 mM KCl, 5 mM MgCl2, 2 mM DTT; 25 °C; without Cho; both purified

Binder | binding [1] | binding [2] | binding [3] | binding [4] | binding [5] | binding [6]
PabB, synthase subunit of aminodeoxychorismate synthase (ADCS) from Escherichia coli, wild type (enzyme, UniProt P05041 1-453) MKTLSPAVITLLWRQDAAEFYFSRLSHLPWAMLLHSGYADHPYSRFDIVVAEPICTLTTFGKETVVSESEKRTTTTDDPLQVLQQVLDRADIRPTHNEDLPFQGGALGLFGYDLGRRFESLPEIAEQDIVLPDMAVGIYDWALIVDHQRHTVSLLSHNDVNARRAWLESQQFSPQEDFTLTSDWQSNMTREQYGEKFRQVQEYLHSGDCYQVNLAQRFHATYSGDEWQAFLQLNQANRAPFSAFLRLEQGAILSLSPERFILCDNSEIQTRPIKGTLPRLPDPQEDSKQAVKLANSAKDRAENLMIVDLMRNDIGRVAVAGSVKVPELFVVEPFPAVHHLVSTITAQLPEQLHASDLLRAAFPGGSITGAPKVRAMEIIDELEPQRRNAWCGSIGYLSFCGNMDTSITIRTLTAINGQIFCSAGGGIVADSQEEAEYQETFDKVNRILKQLEK | no binding (condition: without Gln (50 μM each)) | binds weakly | no binding |  |  | 
PabB variant bR311A (enzyme, UniProt P05041 1-453) MKTLSPAVITLLWRQDAAEFYFSRLSHLPWAMLLHSGYADHPYSRFDIVVAEPICTLTTFGKETVVSESEKRTTTTDDPLQVLQQVLDRADIRPTHNEDLPFQGGALGLFGYDLGRRFESLPEIAEQDIVLPDMAVGIYDWALIVDHQRHTVSLLSHNDVNARRAWLESQQFSPQEDFTLTSDWQSNMTREQYGEKFRQVQEYLHSGDCYQVNLAQRFHATYSGDEWQAFLQLNQANRAPFSAFLRLEQGAILSLSPERFILCDNSEIQTRPIKGTLPRLPDPQEDSKQAVKLANSAKDRAENLMIVDLMANDIGRVAVAGSVKVPELFVVEPFPAVHHLVSTITAQLPEQLHASDLLRAAFPGGSITGAPKVRAMEIIDELEPQRRNAWCGSIGYLSFCGNMDTSITIRTLTAINGQIFCSAGGGIVADSQEEAEYQETFDKVNRILKQLEK |  |  |  | no binding (tested: 250 μM PabB titrated into 25 μM PabA) | no binding (tested: 50 μM each) | no binding (tested: 50 μM each)
PabB variant bD308A (enzyme, UniProt P05041 1-453) MKTLSPAVITLLWRQDAAEFYFSRLSHLPWAMLLHSGYADHPYSRFDIVVAEPICTLTTFGKETVVSESEKRTTTTDDPLQVLQQVLDRADIRPTHNEDLPFQGGALGLFGYDLGRRFESLPEIAEQDIVLPDMAVGIYDWALIVDHQRHTVSLLSHNDVNARRAWLESQQFSPQEDFTLTSDWQSNMTREQYGEKFRQVQEYLHSGDCYQVNLAQRFHATYSGDEWQAFLQLNQANRAPFSAFLRLEQGAILSLSPERFILCDNSEIQTRPIKGTLPRLPDPQEDSKQAVKLANSAKDRAENLMIVALMRNDIGRVAVAGSVKVPELFVVEPFPAVHHLVSTITAQLPEQLHASDLLRAAFPGGSITGAPKVRAMEIIDELEPQRRNAWCGSIGYLSFCGNMDTSITIRTLTAINGQIFCSAGGGIVADSQEEAEYQETFDKVNRILKQLEK |  |  |  | no binding (tested: 250 μM PabB titrated into 25 μM PabA) | no binding (tested: 50 μM each) | no binding (tested: 50 μM each)
PabB variant bD308N (enzyme, UniProt P05041 1-453) MKTLSPAVITLLWRQDAAEFYFSRLSHLPWAMLLHSGYADHPYSRFDIVVAEPICTLTTFGKETVVSESEKRTTTTDDPLQVLQQVLDRADIRPTHNEDLPFQGGALGLFGYDLGRRFESLPEIAEQDIVLPDMAVGIYDWALIVDHQRHTVSLLSHNDVNARRAWLESQQFSPQEDFTLTSDWQSNMTREQYGEKFRQVQEYLHSGDCYQVNLAQRFHATYSGDEWQAFLQLNQANRAPFSAFLRLEQGAILSLSPERFILCDNSEIQTRPIKGTLPRLPDPQEDSKQAVKLANSAKDRAENLMIVNLMRNDIGRVAVAGSVKVPELFVVEPFPAVHHLVSTITAQLPEQLHASDLLRAAFPGGSITGAPKVRAMEIIDELEPQRRNAWCGSIGYLSFCGNMDTSITIRTLTAINGQIFCSAGGGIVADSQEEAEYQETFDKVNRILKQLEK |  |  |  | no binding (tested: 250 μM PabB titrated into 25 μM PabA) | no binding (tested: 50 μM each) | no binding (tested: 50 μM each)
PabB variant bD308E (enzyme, UniProt P05041 1-453) MKTLSPAVITLLWRQDAAEFYFSRLSHLPWAMLLHSGYADHPYSRFDIVVAEPICTLTTFGKETVVSESEKRTTTTDDPLQVLQQVLDRADIRPTHNEDLPFQGGALGLFGYDLGRRFESLPEIAEQDIVLPDMAVGIYDWALIVDHQRHTVSLLSHNDVNARRAWLESQQFSPQEDFTLTSDWQSNMTREQYGEKFRQVQEYLHSGDCYQVNLAQRFHATYSGDEWQAFLQLNQANRAPFSAFLRLEQGAILSLSPERFILCDNSEIQTRPIKGTLPRLPDPQEDSKQAVKLANSAKDRAENLMIVELMRNDIGRVAVAGSVKVPELFVVEPFPAVHHLVSTITAQLPEQLHASDLLRAAFPGGSITGAPKVRAMEIIDELEPQRRNAWCGSIGYLSFCGNMDTSITIRTLTAINGQIFCSAGGGIVADSQEEAEYQETFDKVNRILKQLEK |  |  |  |  | no binding (condition: without Gln (50 μM each)) | 
PabB variant bY210A (enzyme, UniProt P05041 1-453) MKTLSPAVITLLWRQDAAEFYFSRLSHLPWAMLLHSGYADHPYSRFDIVVAEPICTLTTFGKETVVSESEKRTTTTDDPLQVLQQVLDRADIRPTHNEDLPFQGGALGLFGYDLGRRFESLPEIAEQDIVLPDMAVGIYDWALIVDHQRHTVSLLSHNDVNARRAWLESQQFSPQEDFTLTSDWQSNMTREQYGEKFRQVQEYLHSGDCAQVNLAQRFHATYSGDEWQAFLQLNQANRAPFSAFLRLEQGAILSLSPERFILCDNSEIQTRPIKGTLPRLPDPQEDSKQAVKLANSAKDRAENLMIVDLMRNDIGRVAVAGSVKVPELFVVEPFPAVHHLVSTITAQLPEQLHASDLLRAAFPGGSITGAPKVRAMEIIDELEPQRRNAWCGSIGYLSFCGNMDTSITIRTLTAINGQIFCSAGGGIVADSQEEAEYQETFDKVNRILKQLEK |  |  |  |  | no binding (condition: without Gln (50 μM each)) | 
